# Measured values taken from the supplement of paper PMC10185492.
# The other results are listed elsewhere or left out. These are enrichments in a pooled selection; single values are uncertain.
# Test system: SARS-CoV-2 3CLpro (nsp5)
# Assay: substrate phage enrichment score (protease-eluted vs HEPES control, +1 offset) (ratio); higher = better cleaved substrate
# Settings: selection round: 4; protease elution time: 15 min
# Description: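 Random heptapeptide substrate phage display (M13 pIII fusion, heptapeptide between an N-terminal biotinylated AviTag GLNDIFEAQKIEWHE and pIII; phages immobilised on streptavidin) eluted by cleavage with 50 nM protease in 20 mM HEPES at 37 °C. Selected phages were NGS sequenced, and the enrichment score is (reads in protease sample + 1)/(reads in HEPES blank-selection control + 1).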
row,Substance,substrate phage enrichment score
1,CSRTFPS,> 82
2,EQERSSP,> 21
3,VSCEANT,> 29
4,REAPNRA,> 24
5,CRTCCKT,0.318
6,KHDVDVR,0.6
7,SNQTSQQ,4.33
8,SCAPTRE,> 32
9,SYETNRN,1.54
10,PCTSHQR,> 29
11,APHLNDT,1
12,CSAELPR,1.75
13,QAPAIGR,> 79
14,TYTSGSN,> 21
15,ACTLNRG,4.28
16,PCVQCAP,0.0952
17,GACRLHC,> 51
18,KQRITSK,10
19,SDRPIYM,3.33
20,NHNPTEQ,> 23
21,GSSAAAH,0.25
22,MPAAHHH,0.556
23,ERPCYKQ,> 32
24,TRQSNAW,13
25,TSLPNGK,1.44

row,Substance,substrate phage enrichment score
1,CAAAHQH,0.788
2,GPHIIIT,1.5
3,TKQPKPV,0.571
4,KPVQLQS,268
5,PAKHSAP,2.46
6,LRAPPAT,1.3
7,RREQNSR,0.895
8,ACGSSRF,5
9,NTWWTPH,> 29
10,PMAAHHH,0.413
11,LYFQGGS,1.62
12,ETDGISN,1.8
13,RPETNAY,8.33
14,RHVSKAG,> 81
15,LSRQNTR,> 48
16,HEPTLPT,> 37
17,VQVRLQS,> 87
18,HPAMFDS,10
19,TCIMQSQ,> 43
20,GAPRTRP,> 23
21,ACSYLIP,> 21
22,PEAENGH,0.2
23,VPSDTGQ,0.724
24,FAAAHHH,0.602
25,PTPLLSG,> 48

row,Substance,substrate phage enrichment score
1,PSSFNGC,21
2,AWSGNGS,> 23
3,GNRTKLQ,> 25
4,QLYFQGG,1.02
5,LPKTCEN,3
6,SPTWVEP,> 38
7,ELYGQGG,1.75
8,PYSWQQR,1.84
9,EPSNMSQ,> 35
10,SLNVLSR,2.52
11,DIGRQTV,3.17
12,GWAAHHH,1.6
13,AERNTIC,> 63
14,HDISRDW,4
15,HCGPVVN,0.977
16,TQDGGGT,19
17,TQTQLHS,7.36
18,QHNNLSR,8.67
19,ANAAAHH,0.564
20,DHVTILQ,58.7
21,QRCNAAA,> 48
22,PRMYTNP,1.62
23,SKSDGHT,> 21
24,SCAPIVR,> 28
25,TPTVTQR,> 52

row,Substance,substrate phage enrichment score
1,PHWTPGT,> 38
2,QREGCFW,> 23
3,AHADTIQ,4.6
4,VKSRTDG,> 32
5,AHESGAI,7
6,RANCLMQ,13
7,KPDFQGG,11.5
8,RSEFPGR,14.5
9,NPTPISN,> 24
10,RNGTTSN,1.09
11,QTFCRSR,> 123
12,ARQESSG,0.421
13,QPFLRER,6.4
14,LCRDRCM,4.3
15,AEQKLIS,0.368
16,MPNRVSP,8.4
17,SCNGIGS,8.5
18,EGAHAPW,0.923
19,TSAHHHH,0.526
20,PIERFDT,0.571
21,MPIQCHP,> 38
22,SVAAHHH,0.95
23,SQRSLAP,1.34
24,THRGNLD,1.5
25,VVHESLS,> 30

row,Substance,substrate phage enrichment score
1,SRQYFQG,5
2,HEAAHHH,0.938
3,AQGNAVC,0.711
4,PQAGLSG,> 38
5,SCTRWSC,> 22
6,VTPRCLK,0.565
7,SSTTTLQ,> 25
8,SQLGPSK,> 23
9,HNHHHGA,0.444
10,APVRLQS,881
11,NVQLQAS,> 116
12,WPRWPND,1.52
13,PSYELKA,> 54
14,SYDLNHG,7
15,CPYEETI,3.17
16,KRWHPGD,> 40
17,TKCSLVN,8.33
18,AHLKSHN,> 24
19,QTGDDPV,0.0714
20,VTISRQG,15.5
21,RTGLNTS,17.3
22,TSSAAHH,0.25
23,QTLEHRY,2.14
24,ARETVRG,> 40
25,RDLLRAP,3

row,Substance,substrate phage enrichment score
1,PKSRANW,> 31
2,KESDKET,> 34
3,SEQVTLQ,141
4,NELTLDP,7.8
5,NNCVNDR,> 49
6,HQKEPST,0.889
7,CNTRNMG,0.429
8,TKTMSAH,1.44
9,NEPITFR,> 39
10,TSLQSRE,20
11,RTYSHHM,> 22
12,PASPVLQ,> 401
13,LFEQTSN,> 26
14,WCVAPDR,> 25
15,SGPQVNR,12
16,SSCEYKR,4.17
17,GNCHKET,1.11
18,GPHLPNA,1
19,FHHHHGA,3.27
20,RPGRHSE,0.5
21,FRESEEN,2
22,MPFAQSH,2.78
23,TARWSET,12.5
24,NRAPNLQ,> 28
25,LDPLTAG,2

row,Substance,substrate phage enrichment score
1,NKRPVRS,0.087
2,ISKLQSG,100
3,PRVDPCG,2.86
4,AYDWPSE,> 31
5,LPGNQRG,> 129
6,MRRPIAQ,2.06
7,SVDSCSA,> 25
8,GQSSLLR,> 32
9,VTLQAGI,> 21
10,RVRSDHH,14
11,PTTNSMQ,> 52
12,HEPKALR,> 21
13,CSYDGRQ,> 33
14,YRGGNTQ,0.88
15,QAASETR,0.333
16,KCTPHKV,0.381
17,RGSQHNN,> 21
18,TAGQPNT,2.22
19,TDRQNPW,> 23
20,TPNSCIK,> 25
21,HCHHHHG,0.7
22,AQAAHHH,0.87
23,ARVRLQS,> 442
24,MPLRAAQ,0.405
25,EVHVMCN,> 111

row,Substance,substrate phage enrichment score
1,NTITVMG,2.45
2,GPSLMRG,0.435
3,SNIKAQC,5.7
4,AKSWDGS,6
5,SNVLNCR,0.966
6,HGHESGE,18
7,ESCKREL,0.526
8,RPTSKLQ,> 26
9,QDTWKDG,1.12
10,CPHRGVP,1
11,VLYFQGG,4
12,GGSECEH,> 21
13,ASESSLQ,14.8
14,AAHHHHH,0.473
15,AHTMTHP,5.2
16,TADNPPE,11.3
17,KPRIEQE,> 33
18,APRVGFV,1.75
19,QRCVTHD,1.83
20,LNKLQSN,> 42
21,RMEHRGP,> 28
22,CRLSRRA,> 22
23,WQTTKPR,6.2
24,YTEEPSG,1.3
25,CRTYMTT,2.28

row,Substance,substrate phage enrichment score
1,RSPQILK,0.0952
2,RSSSASP,0.636
3,ASIGPLT,0.364
4,CGVRTGG,1.21
5,GSPGEEE,> 27
6,THNERGR,12.5
7,SILHPHG,0.533
8,QRDGADH,> 32
9,DFSVNAN,> 42
10,ELTNESN,1.66
11,SRSEDGT,1.91
12,HPNALKG,> 35
13,YYFQGGS,2.29
14,QGHHVSC,> 156
15,DYKDRLS,10
16,VYNLKSN,> 56
17,LKYSHCQ,2.71
18,LKNENGR,10
19,TRRTTLQ,> 317
20,CGQDLKW,4.2
21,NKEAFSQ,> 27
22,ENAETRS,> 30
23,EHDLKPL,> 223
24,AIRNGEM,> 27
25,ITSPAGM,3.15

row,Substance,substrate phage enrichment score
1,KTSKGCP,3.83
2,KETRDSH,0.438
3,SYHDSLM,12.5
4,SRYYESR,4
5,DLHGANG,> 21
6,ITSVRET,3.12
7,TAVLQGD,> 22
8,TTTHMNL,3.12
9,RGEQVSE,10.3
10,GQPCIYS,4.5
11,ECRRDHG,> 32
12,GSNSHLA,> 27
13,SAAAPHH,1.13
14,AAVGMQA,1
15,QENKLPG,> 260
16,HPGVEDG,> 38
17,ERHCRAY,> 131
18,VEAAHHH,0.6
19,TQLQGFQ,> 57
20,KPNYPRH,> 28
21,SEHVKMQ,> 21
22,SWCTKYG,> 29
23,CKTKCAL,1.8
24,TQRANGP,1
25,GAAAPHH,1.38

row,Substance,substrate phage enrichment score
1,RASVRLT,> 80
2,PANSTLQ,11
3,KCHTEPK,1
4,GDCRGVR,> 25
5,SVRDDPR,> 65
6,CRWPVKS,4.75
7,NSQDARA,2.67
8,SGLSGGT,1.67
9,AWKGASP,2.84
10,ASQTGKM,> 28
11,RPEALWR,0.783
12,SHKLISE,0.778
13,PHGMPHR,45.5
14,KHSHAGK,> 22
15,PHVIEKG,6.5
16,QHSWHTR,4.24
17,NSKTESD,0.316
18,NKTSESY,> 28
19,SQPARDC,2.48
20,RPPYTAR,4.5
21,STPALIQ,2.11
22,TWLERNG,8.33
23,SKAEERT,> 27
24,AQREQQM,24
25,ATNMYAP,> 29

row,Substance,substrate phage enrichment score
1,QCKYSRQ,2.26
2,CSLSMPG,0.15
3,ASMARSS,13
4,GAAAQHH,1.65
5,ARPQSRT,9
6,VAVGNRQ,> 24
7,AGCSVCA,4.07
8,TTVQYGQ,> 25
9,SNPRELT,> 44
10,HSQMTVP,> 37
11,HADNVTD,1
12,APSIGSR,6.71
13,VTPSDLQ,9.33
14,VGSETSQ,3.29
15,CDHIKVT,> 22
16,SAAAQQQ,1.99
17,WTHAGTQ,> 29
18,QPRERGE,> 36
19,EHQRSSD,> 43
20,GHREEAA,4
21,HCFRAKR,0.0571
22,VRPHLII,1.29
23,VVHDVKQ,0.158
24,CDRGGHG,0.5
25,YRDPGRR,2.57

row,Substance,substrate phage enrichment score
1,VKPRAQQ,0.294
2,TSGPMNQ,> 37
3,FQQCEPL,1.32
4,PSNTTAH,0.733
5,TCSAAHH,2.6
6,WEAAHHH,0.571
7,KPVPVSE,> 29
8,LKARSQH,1.31
9,HLNPEPI,6.9
10,CCVRPQN,> 38
11,SHDSNLM,17.5
12,INDLADG,19.3
13,TRSPRPH,> 64
14,YCSCTSD,> 24
15,ANHLNPG,3.67
16,SAGAHHH,2.06
17,TSGFENR,8.36
18,ETSSVPD,2.38
19,LQPKSGQ,> 25
20,RASILQA,> 51
21,LNSEDLL,> 40
22,TAVPILQ,> 42
23,GRNERPP,> 31
24,APASTLQ,> 36
25,TTLQSDR,> 60

row,Substance,substrate phage enrichment score
1,RASQRHG,0.0769
2,PLHTRLQ,> 36
3,ELHFQGG,1.88
4,SPMHLMR,1.73
5,KFRGLGD,> 57
6,THQNVRQ,1.29
7,EPQVNGQ,7
8,ARHADSW,10.5
9,PTLSGER,3.12
10,YKAAHHH,2.22
11,LGGIRLH,3.23
12,QDGTATR,2.25
13,PWDSKVY,1.18
14,VRPHIIT,0.692
15,RVEPFPR,1.58
16,HRDRRDT,> 103
17,NALPWQQ,0.389
18,QPGNMEL,0.6
19,LQQKTHT,> 31
20,PAIHESR,16.5
21,PGQARPD,0.304
22,FGAAHHH,0.611
23,VHLPVPT,7.67
24,SRKPGAR,0.17
25,AVSAPGN,3.78

row,Substance,substrate phage enrichment score
1,PDGCDHH,11.8
2,QAKCNQQ,> 28
3,RSAPFSQ,3.6
4,GPYRHGS,5.5
5,SRGPCLM,> 43
6,VKTSSLQ,> 23
7,KGCTPWR,0.6
8,LEQENSE,0.2
9,NPTAHHH,0.6
10,DCRLQSW,20.5
11,KADCVNW,1.61
12,PTTSVTF,0.107
13,SECDPRD,1.6
14,RSCVLQG,49.8
15,PTRTKGQ,> 81
16,VQHHMMG,> 59
17,CGGGWER,> 24
